This is an account of results in PubChem BioAssay AID463173 (ICCB-Longwood Screening Facility, Harvard Medical School, 2010).

Hit rate of the full screen: of about 52,000 compounds, about 1,700 (3.3%) were called active. No stated cut-off is given here; in the data, active means survival mostly below about 52% (no sharp cut-off); inactive means mostly above about 56%. The list shows a part of the results.

The assay relates to Wild type. As to the kind of experiment: growth inhibition of S. aureus wild type versus tarO mutant, primary screen, teichoic acid synthesis inhibitors, RN4220, OD600 (AID 463173). The conditions noted are these: S. aureus RN4220 wild type/DeltatarO growth, OD600, 18 h, hits give low values, screened at 18.75 µg/mL (by protocol).
With `Cc1ccc(NC(=O)CSc2nc3c(oc4ccccc43)c(=O)n2Cc2ccco2)cc1`, the survival was inactive: 78%.

As to `Cc1cc(C)cc(-n2ccnc2SCC(=O)Nc2ccc3c(c2)OCO3)c1`, the survival is inactive: 91%.

For the molecule `CN(C(=O)Nc1ccccc1)C12CC3CC(CC(C3)C1)C2`, the survival was inactive: 111%.

`CC(=O)N(Cc1cccnc1)c1nc2c(C)cccc2s1`: the survival is inactive: 73%.

As to `Cn1cc(-c2cc3n(n2)CCC(=O)N3CCCC(=O)Nc2ccc(F)cc2F)c2ccccc21`, the survival is inactive: 121%.

In the case of `COc1cc(C(c2nnnn2C2CCCCC2)N2CCc3ccccc3C2)ccc1O` (stereo not drawn), the survival was inactive: 103%.

With `COc1ccc(CCn2c(=O)c3cccnc3n(CC(=O)Nc3cccc(C)c3)c2=O)cc1OC`, the survival is inactive: 92%.

On to `CCOC(=O)C1CCN(C(=O)Cn2nc(C)n3c(cc4cc(C)ccc43)c2=O)CC1`, for which the survival is inactive: 79%.

With `COc1ccc(S(=O)(=O)NCc2ccc3c(c2)CCN3C(=O)c2ccc(C)cc2)cc1Cl`, the survival is inactive: 121%.

Regarding `Cc1cc2nc(-c3ccc(Br)cc3)cc(C(F)(F)F)n2n1`, the survival is inactive: 77%.

As to `Cc1nc2c(C(=O)NCCc3ccc(Cl)cc3)c[nH]n2c(=O)c1Cc1ccccc1F`, the survival was active: -11%.

With `CCc1ccc(-c2cn3c(n2)sc2cc(C(=O)NCC(C)c4ccccc4)ccc23)cc1` (stereo not drawn), the survival is inactive: 80%.

Take `Cc1ccc2nc(NS(=O)(=O)c3ccc(Cl)cc3)c(Nc3ccc(C(=O)O)cc3)nc2c1`: the survival was inactive: 106%.

Turning to `Cc1nnc2c(N3CCN(c4ccccc4)CC3)nc3ccc(C(=O)c4ccccc4)cc3n12`, the survival was inactive: 81%.

On to `CCOC(=O)C1CCCN(S(=O)(=O)c2ccc(Cl)cc2)C1` (stereo not drawn), for which the survival is inactive: 113%.

For `CCc1ccc(N2CCn3c2nc2c3c(=O)n(Cc3c(F)cccc3Cl)c(=O)n2C)cc1`, the survival was inactive: 87%.

Turning to `CCc1ccc(NS(=O)(=O)c2ccc(C(=O)N(C)C)s2)cc1`, the survival is inactive: 64%.

Turning to `O=C(C1CC1)N1CCc2cc(Br)cc(S(=O)(=O)N3CCN(c4ccccc4)CC3)c21`, the survival was inactive: 76%.

`Cn1c(=O)c2sccc2n2c(CCC(=O)N3CCN(c4cccc(Cl)c4)CC3)nnc12`: the survival was inactive: 151%.

Consider `CCCCC(=O)Nc1nnc(S(=O)(=O)N(CC)c2cc(C)cc(C)c2)s1`, for which the survival is inactive: 89%.

As for `CCCCOC(=O)c1ccc(Nc2nc3ccccc3c3nnc(C)n23)cc1`, the survival was inactive: 19%.

As to `Cc1c(CNCCc2ccc(S(N)(=O)=O)cc2)c(C(=O)O)c(C)n1Cc1ccc(Cl)cc1`, the survival is inactive: 93%.

Consider `CCOc1ccc(/C=C(\C#N)C(=O)Nc2sc3c(c2C(=O)OC)C(C(=O)OC)CC3)cc1OC` (stereo not drawn), for which the survival was inactive: 84%.

Regarding `CC(=NCc1cccnc1)c1c(C)[nH]n(-c2nc3ccccc3s2)c1=O`, the survival was inactive: 102%.

Consider `CCC(C)NC(=O)C1CCN(c2ncccn2)CC1` (stereo not drawn), for which the survival is inactive: 105%.

With `CN(C(=O)CSc1nc2ccccc2n1CC(=O)N(C)c1ccc(F)cc1)c1ccccc1`, the survival was inactive: 67%.

Take `CCc1ccccc1NC(=O)Cn1nnc(C(=O)NCc2cccs2)c1N`: the survival is inactive: 96%.

With `COc1cc(NC(=O)c2cc(-c3ccc(Cl)c(Cl)c3)on2)cc(OC)c1OC`, the survival is inactive: 127%.

As for `COc1ccc(CNCCSc2nnnn2-c2ccccc2)c(OC)c1`, the survival was inactive: 84%.

Turning to `COc1ccc(N2CCN(C(=O)C3CCN(S(=O)(=O)Cc4ccccc4)CC3)CC2)cc1`, the survival is inactive: 83%.

For the molecule `O=C(CSc1nccn1Cc1ccc(F)cc1)Nc1ccc2c(c1)OCO2`, the survival was inactive: 126%.

`Cc1ccc(CNC(=O)CN2C(=O)C3(SCC(=O)N3c3cc(C)cc(C)c3)c3ccccc32)cc1` (stereo not drawn): the survival is inactive: 65%.

`CCOc1ccc(Nc2oc(-c3ccc(COc4ccccc4C)o3)nc2C#N)cc1`: the survival is inactive: 92%.

As to `Cc1nc(-c2cccc(F)c2)sc1CCNC(=O)c1ccc(F)c(F)c1`, the survival was inactive: 73%.

In the case of `CCN(c1ccccc1)S(=O)(=O)c1ccc(F)c(C(=O)Nc2ccc(C)cc2)c1`, the survival was inactive: 143%.

Regarding `Cc1ccc(Nc2nnc(-c3ccc(C)c(S(=O)(=O)N4CCCCC4)c3)c3ccccc23)cc1`, the survival was inactive: 107%.

Turning to `Cc1ccc(CCNC(=O)CN2C(=O)COc3ccc(S(=O)(=O)N4CCCCC4)cc32)cc1`, the survival is inactive: 87%.

As to `Cc1ccc(C(CC(=O)NCC2(c3ccccc3)CCCC2)c2ccccc2)c(O)c1` (stereo not drawn), the survival is inactive: 36%.

Take `CCOc1ccc2c(c1)[C@@H]1C=CC[C@@H]1[C@H](c1ccccc1Cl)N2`: the survival was active: 0%.

In the case of `CC(C)(C)OC(=O)N1CCC(c2c(C(=O)Nc3ccc4c(c3)OCCO4)cnn2-c2ccc(F)cc2)CC1`, the survival is inactive: 69%.

As for `Cc1ccc(CNC(C)c2ccccc2)s1` (stereo not drawn), the survival is inactive: 68%.

As for `COc1ccc(C2C(=O)N(C3CCCCCC3)CC(=O)N2CCc2ccccc2)cc1` (stereo not drawn), the survival is inactive: 133%.

Take `Cc1cccc(-c2nc3c(cnn3-c3ccccc3)c(=O)n2-c2cccc(Cl)c2)c1`: the survival is inactive: 70%.

Consider `O=C(NCCc1ccccc1)c1ccc2c(c1)N(Cc1ccccc1)C(=O)c1ccccc1S2=O` (stereo not drawn), for which the survival is inactive: 86%.

Regarding `CCN(CC)S(=O)(=O)c1ccc2c(c1)c(=O)c(C(=O)N(C)Cc1ccccc1)cn2C`, the survival was inactive: 78%.

As to `CN(C)c1ccc(CNC(=O)c2cc3ccccn3n2)cc1`, the survival was inactive: 66%.

On to `Cc1cc(C)cc(NC(=O)CSc2nnc(COc3ccccc3Cl)o2)c1`, for which the survival was inactive: 50%.

With `Cc1ccc(C)c(NC(=O)CCCN2C(=O)COc3ccc(C)cc32)c1`, the survival is inactive: 110%.

For `CC(C)(C)OC(=O)N1CCC(c2c(C(=O)Nc3cccc(C(F)(F)F)c3)cnn2-c2ccc(F)cc2F)CC1`, the survival is inactive: 55%.

Consider `Cn1cnc2c(=O)oc3ccc(S(=O)(=O)N4CCN(c5ccccc5)CC4)cc3c21`, for which the survival was inactive: 87%.

In the case of `CC1CCN(S(=O)(=O)c2ccc3ncn(CC(=O)Nc4ccccc4C(F)(F)F)c(=O)c3c2)CC1`, the survival is inactive: 74%.

On to `Cc1nn(-c2ccccc2)c(-n2cccc2)c1C(=O)NCc1ccccc1Cl`, for which the survival is active: 1%.

Regarding `COc1ccc(C)cc1NC(=O)c1cc2c(s1)-c1ccccc1SC2`, the survival is inactive: 46%.

On to `CCOC(=O)CC(NC(=O)Cn1nnc(-c2ccc(C(F)(F)F)cc2)n1)c1ccccc1Cl` (stereo not drawn), for which the survival is inactive: 93%.

For the molecule `CC(=O)Nc1cc(C(=O)NCc2ccc(F)cc2)ccc1Sc1ccc(C)cc1`, the survival was inactive: 69%.

`CCOC(=O)C1CCN(C(=O)CSc2n[nH]c(-c3ccccc3Cl)n2)CC1`: the survival was inactive: 98%.

For `CN(C)c1ccc(C(CNC(=O)Cc2ccc(Cl)cc2)N2CCOCC2)cc1` (stereo not drawn), the survival was inactive: 45%.

On to `Cc1cc(OCC(=O)Nc2cnn(CCCC(=O)O)c2)ccc1Cl`, for which the survival is inactive: 85%.

Take `O=C1CN(C(=O)c2ccc(Cl)cc2Cl)C(c2ccc(F)cc2)c2cc(F)ccc2N1` (stereo not drawn): the survival was inactive: 74%.

For the molecule `O=C(NCc1cccs1)c1nn(-c2ccccc2)nc1CO`, the survival was inactive: 89%.

Turning to `CCCn1c2ccccc2c2cnn(CC(=O)Nc3cccc(C(=O)OCC)c3)c(=O)c21`, the survival was inactive: 80%.

Turning to `CCOc1ccc(CNC(=O)CN2C(=O)CCn3nc(-c4cn(C)c5ccccc45)cc32)cc1OC`, the survival was active: -6%.

For `Cc1ccc(S(=O)(=O)c2nc(-c3ccco3)oc2SC(C)C)cc1`, the survival is inactive: 49%.

For `COc1ccc(CCNC(=O)Cc2c(C)c3c(cc(C)c4c(C)c(C)oc43)oc2=O)cc1OC`, the survival was inactive: 87%.

For the molecule `Cc1ccc(NC(=O)Cn2c(=O)n(-c3ccc(C)cc3)c(=O)c3ccc(C(=O)NCc4ccccc4Cl)cc32)cc1`, the survival was inactive: 59%.

Turning to `Cc1ccc(NC(=O)CN2Cc3ccccc3C2=O)c(C)c1`, the survival is inactive: 72%.

On to `COc1ccc(NC(=O)c2cc(-c3ccc4c(c3)OCO4)on2)c(OC)c1`, for which the survival is inactive: 75%.

With `CCOC(=O)c1cccc(NC(=O)CCS(=O)(=O)c2ccc(Br)s2)c1`, the survival is inactive: 88%.

For `CC(=O)Nc1nonc1-c1nnc(SCc2ccc(F)cc2Cl)n1C`, the survival is inactive: 84%.

Regarding `Cc1cc(C)cc(NC(=O)c2sc3nc(-c4ccccc4)cn3c2C)c1`, the survival was inactive: 135%.

With `COc1cccc(C2C(C(=O)Nc3ccc(Cl)cc3)=C(C)Nc3c(C(=O)Nc4ccccc4)cnn32)c1OC` (stereo not drawn), the survival was inactive: 93%.

`O=C(CN(Cc1ccccc1F)C(=O)c1ccco1)NCc1ccc(F)cc1`: the survival is inactive: 103%.

As for `CC1(C(=O)NC2CCCCC2)Cc2ccccc2C(=O)N1Cc1ccc(Cl)cc1` (stereo not drawn), the survival was inactive: 89%.

As for `COc1ccc(/C=C/C(=O)Nc2ccc3nc(N4CCC(C)CC4)cc(C)c3c2)cc1OC`, the survival was inactive: 74%.

As to `Cc1c(C)n(Cc2ccc(F)cc2)c2ccc(C(=O)N3CCN(c4ccc(Cl)cc4)CC3)cc12`, the survival is inactive: 72%.

`Cn1c(=O)c2c(nc(SCC(=O)Nc3ccc(F)cc3F)n2Cc2ccccc2)n(C)c1=O`: the survival is inactive: 108%.

As for `CCCNC(=O)NC1CC(C)(C)NC(C)(C)C1`, the survival was inactive: 116%.

Turning to `CCOC(=O)C1CCN(c2cc3c(cc2NC(=O)c2ccc(OC)c(OC)c2)n(C)c(=O)n3C)CC1`, the survival is inactive: 81%.

In the case of `CC1CCCCN1S(=O)(=O)c1ccc(F)c(C(=O)Nc2ccccc2C(F)(F)F)c1` (stereo not drawn), the survival was inactive: 69%.

Regarding `Cc1cn2c(=O)cc(COc3cc(C)c(Cl)c(C)c3)nc2s1`, the survival is inactive: 130%.

With `CCC(C)NC(=O)Cn1c(=O)n(CCCC(=O)NCc2ccc(C)cc2)c(=O)c2ccccc21` (stereo not drawn), the survival is inactive: 74%.

In the case of `CCOc1ccc(NC(=O)CN(c2ccccc2OCC)S(=O)(=O)c2ccccc2)cc1`, the survival is inactive: 75%.

For the molecule `CCOc1cc2sc(N3CCC(C(=O)Nc4ccc(C(C)C)cc4)CC3)nc2cc1Br`, the survival was inactive: 81%.

As for `C=CCSc1nsc(N)n1`, the survival was inactive: 100%.

`Cc1cccc(CNC(=O)Cc2csc3ccccc23)c1`: the survival was inactive: 116%.

Take `CCOc1cc(/C=C2\SC(=S)N(CCCC(=O)O)C2=O)ccc1O`: the survival is inactive: 85%.

Regarding `COc1ccc(S(=O)(=O)N2CCN(Cc3nc4ccc(C)cc4o3)CC2)cc1OC`, the survival is inactive: 82%.

Take `Cc1cc(Cl)ccc1NS(=O)(=O)c1ccc2c(c1)CCN2S(C)(=O)=O`: the survival was inactive: 80%.
